US12459918B2, “Isoquinolinone derivatives serving as rock protein kinase inhibitors and use thereof” (GUANGZHOU OCUSUN OPHTHALMIC BIOTECHNOLOGY CO., LTD., priority 2019, dated 2025)
The source gives many values for each of these; only a part stands here.

Tests used:
[1] = test system: New Zealand rabbits with normal intraocular pressure; assay: Reduction of intraocular pressure by repeated eye-drop administration for 14 days, experiment operation 1; type: in vivo
Description: (§1) Experimental example 4. Experiment on reduction of intraocular pressure and ocular toxicity of New Zealand rabbits with normal intraocular pressure by repeated eye-drop administration for 14 days
(§2) The intraocular pressure reduction action and the potential ocular toxicity of compound 63 were explored by 14 days of repeated eye-drop administration in rabbits with normal intraocular pressure.
(§3) Male New Zealand rabbits, aged 97-127 days, weighted 2.6-3.5 kg, purchased from PizhouDongfang Breeding Co. Ltd.
The male New Zealand rabbits were randomly divided into 7 groups, with 6 rabbits per group. Animals were randomly divided according to body weight Animals in 1-7 groups were eye-dropped with solvent/control sample/test sample in both eyes, the volume of the administration was all 50 μL/eye, once per day for 14 consecutive days, and the day of the administration was recorded as Day 1. On Day 1, intraocular pressure of the animals was measured before the administration and in 1, 2, 4, 6, 8 and 10 hours after the administration, respectively; on Days 2-14, intraocular pressure of the animals was measured in 1 hour after daily administration for the group administered with K-115, and intraocular pressure of the animal was measured in 4 hours after daily administration for the other groups.

[2] = test system: New Zealand rabbits with normal intraocular pressure; assay: Repeated eye-drop administration for 14 days, experiment operation 2: Day 1 intraocular pressure; type: in vivo; settings: group minus negative control
Description: as §1, §2, §3
42 male New Zealand rabbits were randomly divided into 7 groups, with 6 rabbits per group. Animals were randomly divided according to body weight Animals in 1-7 groups were eye-dropped with normal saline in the left eye and with solvent/control sample/test sample in the right eye respectively by a volume of 50 μL/eye, once per day for 14 consecutive days, and the day of administration was recorded as Day 1. The intraocular pressure of the animals was measured before Day 1 administration and in 1, 2, 4, 6, 8 and 10 hours after Day 1 administration, respectively (Table 8).

`Cc1ccc(C(=O)OCn2cc(C)c3c(S(=O)(=O)N4CC[C@H](N)C4)cccc3c2=O)c(C)c1` [Compound 63] was tested, and the “Mean intraocular pressure of both eyes” value ([1]; 0.5 mg/mL once per day, Day 8, 4 hours after daily administration) was 7.11 mmHg, the “Mean intraocular pressure of both eyes” value ([1]; 0.5 mg/mL once per day, Day 9, 4 hours after daily administration) was 6.19 mmHg and the “Mean intraocular pressure of both eyes” value ([1]; 0.5 mg/mL once per day, Day 10, 4 hours after daily administration) was 6.75 mmHg. For the same compound, the “Mean intraocular pressure of both eyes” value ([1]; 0.5 mg/mL once per day, Day 11, 4 hours after daily administration) was 6.44 mmHg, the “Mean intraocular pressure of both eyes” value ([1]; 0.5 mg/mL once per day, Day 12, 4 hours after daily administration) was 6.25 mmHg and the “Mean intraocular pressure of both eyes” value ([1]; 0.5 mg/mL once per day, Day 13, 4 hours after daily administration) was 8.08 mmHg. The “Mean intraocular pressure of both eyes” value ([1]; 0.5 mg/mL once per day, Day 14, 4 hours after daily administration) was 7.25 mmHg, the “Mean intraocular pressure of both eyes” value ([1]; 1.0 mg/mL once per day, Day 8, 4 hours after daily administration) was 7.28 mmHg and the “Mean intraocular pressure of both eyes” value ([1]; 1.0 mg/mL once per day, Day 9, 4 hours after daily administration) was 6.94 mmHg. The “Mean intraocular pressure of both eyes” value ([1]; 1.0 mg/mL once per day, Day 10, 4 hours after daily administration) was 7.31 mmHg, the “Mean intraocular pressure of both eyes” value ([1]; 1.0 mg/mL once per day, Day 11, 4 hours after daily administration) was 7.50 mmHg and the “Mean intraocular pressure of both eyes” value ([1]; 1.0 mg/mL once per day, Day 12, 4 hours after daily administration) was 6.89 mmHg. The “Mean intraocular pressure of both eyes” value ([1]; 1.0 mg/mL once per day, Day 13, 4 hours after daily administration) was 8.06 mmHg, the “Mean intraocular pressure of both eyes” value ([1]; 1.0 mg/mL once per day, Day 14, 4 hours after daily administration) was 7.44 mmHg and the “Mean intraocular pressure of both eyes” value ([1]; 2.0 mg/mL once per day, Day 8, 4 hours after daily administration) was 6.78 mmHg. The “Mean intraocular pressure of both eyes” value ([1]; 2.0 mg/mL once per day, Day 9, 4 hours after daily administration) was 5.72 mmHg, the “Mean intraocular pressure of both eyes” value ([1]; 2.0 mg/mL once per day, Day 10, 4 hours after daily administration) was 5.94 mmHg and the “Mean intraocular pressure of both eyes” value ([1]; 2.0 mg/mL once per day, Day 11, 4 hours after daily administration) was 6.03 mmHg. For the same compound, the “Mean intraocular pressure of both eyes” value ([1]; 2.0 mg/mL once per day, Day 12, 4 hours after daily administration) was 6.03 mmHg, the “Mean intraocular pressure of both eyes” value ([1]; 2.0 mg/mL once per day, Day 13, 4 hours after daily administration) was 7.11 mmHg and the “Mean intraocular pressure of both eyes” value ([1]; 2.0 mg/mL once per day, Day 14, 4 hours after daily administration) was 7.06 mmHg. For the same compound, the “Mean intraocular pressure of both eyes” value ([1]; 4.0 mg/mL once per day, Day 8, 4 hours after daily administration) was 6.78 mmHg, the “Mean intraocular pressure of both eyes” value ([1]; 4.0 mg/mL once per day, Day 9, 4 hours after daily administration) was 5.47 mmHg and the “Mean intraocular pressure of both eyes” value ([1]; 4.0 mg/mL once per day, Day 10, 4 hours after daily administration) was 5.08 mmHg. For the same compound, the “Mean intraocular pressure of both eyes” value ([1]; 4.0 mg/mL once per day, Day 11, 4 hours after daily administration) was 5.83 mmHg, the “Mean intraocular pressure of both eyes” value ([1]; 4.0 mg/mL once per day, Day 12, 4 hours after daily administration) was 5.89 mmHg and the “Mean intraocular pressure of both eyes” value ([1]; 4.0 mg/mL once per day, Day 13, 4 hours after daily administration) was 7.03 mmHg. The “Mean intraocular pressure of both eyes” value ([1]; 4.0 mg/mL once per day, Day 14, 4 hours after daily administration) was 6.33 mmHg, the “Mean intraocular pressure of both eyes” value ([1]; 8.0 mg/mL once per day, Day 8, 4 hours after daily administration) was 5.72 mmHg and the “Mean intraocular pressure of both eyes” value ([1]; 8.0 mg/mL once per day, Day 9, 4 hours after daily administration) was 5.19 mmHg. For the same compound, the “Mean intraocular pressure of both eyes” value ([1]; 8.0 mg/mL once per day, Day 10, 4 hours after daily administration) was 5.56 mmHg, the “Mean intraocular pressure of both eyes” value ([1]; 8.0 mg/mL once per day, Day 11, 4 hours after daily administration) was 5.53 mmHg and the “Mean intraocular pressure of both eyes” value ([1]; 8.0 mg/mL once per day, Day 12, 4 hours after daily administration) was 5.56 mmHg. For the same compound, the “Mean intraocular pressure of both eyes” value ([1]; 8.0 mg/mL once per day, Day 13, 4 hours after daily administration) was 6.67 mmHg, the “Mean intraocular pressure of both eyes” value ([1]; 8.0 mg/mL once per day, Day 14, 4 hours after daily administration) was 6.94 mmHg and the “Change of intraocular pressure” value ([2]; 0.25 mg/mL, 1 hour after administration) was −2.67 mmHg. The “Change of intraocular pressure” value ([2]; 0.25 mg/mL, 2 hours after administration) was −3.39 mmHg, the “Change of intraocular pressure” value ([2]; 0.25 mg/mL, 4 hours after administration) was −3.22 mmHg and the “Change of intraocular pressure” value ([2]; 0.25 mg/mL, 6 hours after administration) was −2.72 mmHg. The “Change of intraocular pressure” value ([2]; 0.25 mg/mL, 8 hours after administration) was −0.66 mmHg, the “Change of intraocular pressure” value ([2]; 0.25 mg/mL, 10 hours after administration) was −1.22 mmHg and the “Change of intraocular pressure” value ([2]; 0.25 mg/mL, before administration) was 0.50 mmHg. For the same compound, the “Change of intraocular pressure” value ([2]; 0.5 mg/mL, 1 hour after administration) was −3.50 mmHg, the “Change of intraocular pressure” value ([2]; 0.5 mg/mL, 2 hours after administration) was −4.05 mmHg and the “Change of intraocular pressure” value ([2]; 0.5 mg/mL, 4 hours after administration) was −2.94 mmHg. The “Change of intraocular pressure” value ([2]; 0.5 mg/mL, 6 hours after administration) was −1.84 mmHg, the “Change of intraocular pressure” value ([2]; 0.5 mg/mL, 8 hours after administration) was −0.50 mmHg and the “Change of intraocular pressure” value ([2]; 0.5 mg/mL, 10 hours after administration) was −0.61 mmHg. For the same compound, the “Change of intraocular pressure” value ([2]; 0.5 mg/mL, before administration) was −0.11 mmHg, the “Change of intraocular pressure” value ([2]; 1.0 mg/mL, 1 hour after administration) was −3.33 mmHg and the “Change of intraocular pressure” value ([2]; 1.0 mg/mL, 2 hours after administration) was −4.17 mmHg. For the same compound, the “Change of intraocular pressure” value ([2]; 1.0 mg/mL, 4 hours after administration) was −3.22 mmHg, the “Change of intraocular pressure” value ([2]; 1.0 mg/mL, 6 hours after administration) was −3.45 mmHg and the “Change of intraocular pressure” value ([2]; 1.0 mg/mL, 8 hours after administration) was 0.11 mmHg. The “Change of intraocular pressure” value ([2]; 1.0 mg/mL, 10 hours after administration) was −1.28 mmHg, the “Change of intraocular pressure” value ([2]; 1.0 mg/mL, before administration) was −0.17 mmHg and the “Change of intraocular pressure” value ([2]; 2.0 mg/mL, 1 hour after administration) was −0.78 mmHg. The “Change of intraocular pressure” value ([2]; 2.0 mg/mL, 2 hours after administration) was −3.72 mmHg, the “Change of intraocular pressure” value ([2]; 2.0 mg/mL, 4 hours after administration) was −3.83 mmHg and the “Change of intraocular pressure” value ([2]; 2.0 mg/mL, 6 hours after administration) was −3.67 mmHg. For the same compound, the “Change of intraocular pressure” value ([2]; 2.0 mg/mL, 8 hours after administration) was −1.39 mmHg, the “Change of intraocular pressure” value ([2]; 2.0 mg/mL, 10 hours after administration) was −2.11 mmHg and the “Change of intraocular pressure” value ([2]; 2.0 mg/mL, before administration) was 0.39 mmHg. For the same compound, the “Change of intraocular pressure” value ([2]; 4 mg/mL, 1 hour after administration) was −2.28 mmHg, the “Change of intraocular pressure” value ([2]; 4 mg/mL, 2 hours after administration) was −3.72 mmHg and the “Change of intraocular pressure” value ([2]; 4 mg/mL, 4 hours after administration) was −4.17 mmHg. The “Change of intraocular pressure” value ([2]; 4 mg/mL, 6 hours after administration) was −4.17 mmHg, the “Change of intraocular pressure” value ([2]; 4 mg/mL, 8 hours after administration) was −2.00 mmHg and the “Change of intraocular pressure” value ([2]; 4 mg/mL, 10 hours after administration) was −1.50 mmHg. For the same compound, the “Change of intraocular pressure” value ([2]; 4 mg/mL, before administration) was 0.67 mmHg.
